From paper PMC7819943, “Rice protein-binding microarrays: a tool to detect cis-acting elements near promoter regions in rice”
This is one part of the list.

target: T1, OsWOX13 (Oryza sativa, UniProt Q5QMM3 1-267); assay: protein-binding microarray (RPBM); PBS, 2% BSA, 51.3 ng/ul salmon testes DNA, 50 uM zinc acetate, 200 nM TF, 25 C, 1 h; high values mean tight binding; conditions: protein: recombinant; tags: N-terminal polyhistidine and DsRed monomer fusion (pET32a); label: CyDye5-dUTP incorporated in the synthesized complementary strand; 3' TTTTT single-stranded linker to array surface; dsDNA, one strand shown
T1 sequence: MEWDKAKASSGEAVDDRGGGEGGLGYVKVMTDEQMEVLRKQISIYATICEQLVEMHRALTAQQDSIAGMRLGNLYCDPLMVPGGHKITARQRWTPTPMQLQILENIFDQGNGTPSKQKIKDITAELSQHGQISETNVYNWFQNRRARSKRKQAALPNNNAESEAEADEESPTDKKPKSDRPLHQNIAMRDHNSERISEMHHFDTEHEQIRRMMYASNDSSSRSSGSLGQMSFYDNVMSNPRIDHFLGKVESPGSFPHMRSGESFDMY
Outline: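 The binding signal for each feature is its fluorescence intensity in arbitrary units. An Axon 4000B scanner was used to read a custom Agilent array that had been made double-stranded with Cy5-dUTP primer extension, blocked with 2% BSA, incubated at 25 °C for 1 h with 200 nM protein in PBS, 2% BSA, salmon testes DNA and 50 µM zinc acetate, and washed. The protein was an N-terminal polyhistidine–DsRed transcription factor fusion from E. coli BL21-CodonPlus, purified on Ni–NTA.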

Sequence | binding signal
ACAATTGAAGATAAATGACAAACCAATAAACCATTTGTTTCGGAGTCACCTAGTGCAG | 5080 fluorescence intensity (a.u.)
TTAATTGATCACATATTAATGGGCAACGCTGTTTTCCATGCGGAGTCACCTAGTGCAG | 63600 fluorescence intensity (a.u.)
TAACAACACATTAATTAGTACATCTTGCATAAGCATAAATCGGAGTCACCTAGTGCAG | 5740 fluorescence intensity (a.u.)
AAGCTTAACACAATTAATTTCCTCGCAAAACATCTCACGCCGGAGTCACCTAGTGCAG | 8760 fluorescence intensity (a.u.)
ATCAAATAATTACCTTTATCTGCAATATGCTAGGTCTTAGCGGAGTCACCTAGTGCAG | 10700 fluorescence intensity (a.u.)
TCCATGATTATGGCTTCTAGATGGATACTATACGTATGTACGGAGTCACCTAGTGCAG | 23700 fluorescence intensity (a.u.)
TTGTGATTAAGTTAAGTAGAAAGGAAAATAGGACCGTGGACGGAGTCACCTAGTGCAG | 24300 fluorescence intensity (a.u.)
AAGGTAAATAATTGGCGGTAGAAACGTTCAAGCCCACCACCGGAGTCACCTAGTGCAG | 9040 fluorescence intensity (a.u.)
TGGCAATGATTTATACTTCAATCATAATTGTTTGCTTAGGCGGAGTCACCTAGTGCAG | 24000 fluorescence intensity (a.u.)
CACCAGATTGTTCATCACCTTACATGTGGTTGTTGGAAATCGGAGTCACCTAGTGCAG | 4540 fluorescence intensity (a.u.)
TGTCAATCAAATATACCTATACAACAAAATACAAGCCACCCGGAGTCACCTAGTGCAG | 16400 fluorescence intensity (a.u.)
AGACGGAATTACCACCCAAAGATTTGTCAATCTCTCAAGCCGGAGTCACCTAGTGCAG | 4310 fluorescence intensity (a.u.)
ATCATAATTAAATATATTTTCATAATAAATTTGTCTTTAGCGGAGTCACCTAGTGCAG | 31000 fluorescence intensity (a.u.)
ACCGGTAAATTAATTAGCAAACACAGTAGCATGATGAGATCGGAGTCACCTAGTGCAG | 27000 fluorescence intensity (a.u.)
CGTTTTCATTAATGACCTAATCTCCAATTAAACTCCATATCGGAGTCACCTAGTGCAG | 14400 fluorescence intensity (a.u.)
CTTTATAAATTGTGTCATCTACTCATGTGTGGTAGGTCAACGGAGTCACCTAGTGCAG | 5450 fluorescence intensity (a.u.)
TTATAACTGATTTATACTATCCTTTTGAGTTTTGGCAGATCGGAGTCACCTAGTGCAG | 26300 fluorescence intensity (a.u.)
AATAATGAGATTTTAATTAGGCAGTGGTAACACATAGTAACGGAGTCACCTAGTGCAG | 12600 fluorescence intensity (a.u.)
GATGATTTTGGCTTTGGGAAAGATGGTTTGTGCCATGCGACGGAGTCACCTAGTGCAG | 4170 fluorescence intensity (a.u.)
TAATTTCATCTTGATGGACACGTGGTTTGTCGATGTACACCGGAGTCACCTAGTGCAG | 3720 fluorescence intensity (a.u.)
GGTGTGATAGAATGGGATTAATCCGAAGCGCCGCCAATGTCGGAGTCACCTAGTGCAG | 21000 fluorescence intensity (a.u.)

Sequence | binding signal
ACATCATTAATCAATCTGTAATTAATCCACCATAATTTAACGGAGTCACCTAGTGCAG | 10800 fluorescence intensity (a.u.)
ACGGGGTTGCGGTAATTTTAATTGGGCCGAAATGTGATTCCGGAGTCACCTAGTGCAG | 4130 fluorescence intensity (a.u.)
CTAGCGAACAAATTGATCCCTTGCAACTGTCCCATCGTTACGGAGTCACCTAGTGCAG | 5650 fluorescence intensity (a.u.)
GTCTGATTTATGTTCATTCCTATAGGTTTATTCTGGTGACCGGAGTCACCTAGTGCAG | 36500 fluorescence intensity (a.u.)
TAATAATATAATAGATAATAGATAGATGATTTACCAAGGCCGGAGTCACCTAGTGCAG | 23100 fluorescence intensity (a.u.)
TAAATTAAATTGCTACGTAAGTGCCACGTCATATTAAGATCGGAGTCACCTAGTGCAG | 16000 fluorescence intensity (a.u.)
CATGATTTGACAAAATTCAGTTGAATGCAAAATTCATACCCGGAGTCACCTAGTGCAG | 36300 fluorescence intensity (a.u.)
AGTGGGTCGCTGATTAATCATTCGTCGTTGTGCAGAAGCACGGAGTCACCTAGTGCAG | 3990 fluorescence intensity (a.u.)
GTCCCAATTTAAATGCAACCATGATTTTCTGTGTCCAACTCGGAGTCACCTAGTGCAG | 11800 fluorescence intensity (a.u.)
ACATCGAATATCCAATCAATTTAACCTGCAACCAACTTTTCGGAGTCACCTAGTGCAG | 12000 fluorescence intensity (a.u.)
GAGATGTATAAATTTATTAAAATAGGAAAGTAATGCGGTGCGGAGTCACCTAGTGCAG | 6500 fluorescence intensity (a.u.)
ACGATGACTGGTTTTCGGGTTCAGAGGTGTAATTTGGTCGCGGAGTCACCTAGTGCAG | 11600 fluorescence intensity (a.u.)
TTCTAACAATGCCAGTAATTTGCGTCCTAATGTTGCTCATCGGAGTCACCTAGTGCAG | 4300 fluorescence intensity (a.u.)
CAAAACCTATAGTTTTGTGATAAATAAAGATATTAAATGTCGGAGTCACCTAGTGCAG | 23700 fluorescence intensity (a.u.)
GCTAAATAGGAAATGTAAACCCAGGTGCTTGTTGTAGCATCGGAGTCACCTAGTGCAG | 3650 fluorescence intensity (a.u.)
TTTACTATGATTGTTTAGGATCCTACTTGAGACCACATACCGGAGTCACCTAGTGCAG | 17800 fluorescence intensity (a.u.)
TTGAACATTAACAATCACACACCAATAATTTATCTGCATTCGGAGTCACCTAGTGCAG | 8280 fluorescence intensity (a.u.)
GTGTAGGTTGGTAGTGATTGGGTCCAGATTGGTGGCTCAGCGGAGTCACCTAGTGCAG | 9330 fluorescence intensity (a.u.)
AGAGTTGTGATTGGATGAGTAGTGCAGATATGTGGGAAAACGGAGTCACCTAGTGCAG | 21600 fluorescence intensity (a.u.)
AATTTAATTAACTTCATATTTGGCATTACAGGAAGCTATGCGGAGTCACCTAGTGCAG | 28000 fluorescence intensity (a.u.)
AAATTGTAATTGGCAACCAGCACATGAACCACTGGGTTTTCGGAGTCACCTAGTGCAG | 4840 fluorescence intensity (a.u.)
